Laboratory results reported in PubChem BioAssay AID504332 (National Center for Advancing Translational Sciences (NCATS), 2011).
Hit rate of the full screen: of about 350,000 compounds, about 31,000 (8.9%) were called active. The shares of active, inactive and inconclusive entries below differ from those in the screen. Calls come from the whole dose curve; as a rule, active = well fitted inhibition curve with a large enough effect; inconclusive = small, poorly fitted or top-dose-only effect; inactive = no such curve, though single readings can be large or run the other way. A potency beside an inconclusive call is a rough fit, not a confirmed value.

Biological target: Histone-lysine N-methyltransferase EHMT2 (Homo sapiens) (UniProt Q96KQ7)
Assay: qHTS Assay for Inhibitors of Histone Lysine Methyltransferase G9a; note: nearly all actives have a fitted effect of over 75% in size
Settings: G9a H3K9 monomethylation, AlphaScreen, 2 h; activity, negative = inhibition: at 59 µM (top of the series) unless noted
Procedure, shortened: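 Using a bead-based AlphaScreen, monomethylated H3K9 product from 2 h room-temperature reactions (G9a 20 nM, peptide 500 nM, SAM 20 uM) was detected with 0.5 ug/mL rabbit anti-H3K9me1 antibody.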
% is set by controls: 0 for no effect and ±100 for the full control effect; potency is the fitted concentration of half-maximal effect; tags give direction and shape of the fitted curve.

Chain of UniProt Q96KQ7 (Q96KQ7 whole entry, looked up): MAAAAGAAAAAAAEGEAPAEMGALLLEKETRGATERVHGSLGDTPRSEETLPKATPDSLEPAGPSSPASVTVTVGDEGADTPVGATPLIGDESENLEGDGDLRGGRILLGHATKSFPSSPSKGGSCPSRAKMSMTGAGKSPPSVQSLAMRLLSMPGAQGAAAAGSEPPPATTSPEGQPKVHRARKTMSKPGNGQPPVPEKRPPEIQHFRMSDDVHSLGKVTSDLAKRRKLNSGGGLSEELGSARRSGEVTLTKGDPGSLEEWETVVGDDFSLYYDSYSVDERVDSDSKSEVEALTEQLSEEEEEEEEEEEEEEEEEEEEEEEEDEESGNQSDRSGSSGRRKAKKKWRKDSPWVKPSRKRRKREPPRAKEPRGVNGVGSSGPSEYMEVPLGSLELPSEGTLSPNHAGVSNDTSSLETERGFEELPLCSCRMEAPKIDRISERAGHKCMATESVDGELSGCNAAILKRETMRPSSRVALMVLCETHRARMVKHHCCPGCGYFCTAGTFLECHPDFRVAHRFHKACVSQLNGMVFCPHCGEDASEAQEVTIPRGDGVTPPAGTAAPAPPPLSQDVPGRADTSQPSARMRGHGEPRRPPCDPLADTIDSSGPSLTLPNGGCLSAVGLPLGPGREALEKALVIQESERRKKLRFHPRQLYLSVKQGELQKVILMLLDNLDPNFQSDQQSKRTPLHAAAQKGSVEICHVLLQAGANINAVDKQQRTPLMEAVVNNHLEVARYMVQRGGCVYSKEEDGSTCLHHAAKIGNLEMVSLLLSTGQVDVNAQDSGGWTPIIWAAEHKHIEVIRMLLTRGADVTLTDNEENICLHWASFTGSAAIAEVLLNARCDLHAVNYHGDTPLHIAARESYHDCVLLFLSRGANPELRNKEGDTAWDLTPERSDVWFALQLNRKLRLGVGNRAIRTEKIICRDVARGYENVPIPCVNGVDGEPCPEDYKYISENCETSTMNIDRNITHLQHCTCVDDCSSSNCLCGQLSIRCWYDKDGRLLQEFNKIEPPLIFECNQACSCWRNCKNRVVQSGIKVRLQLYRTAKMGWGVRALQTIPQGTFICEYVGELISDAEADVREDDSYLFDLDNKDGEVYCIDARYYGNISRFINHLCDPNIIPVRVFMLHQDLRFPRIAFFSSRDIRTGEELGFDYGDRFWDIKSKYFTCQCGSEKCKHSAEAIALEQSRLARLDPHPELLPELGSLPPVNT

Compound | Potency | activity, negative = inhibition
O=C(NCCCN1CCOCC1)c1ccc(CNS(=O)(=O)c2ccc(Br)cc2)cc1 | inconclusive: 89.1 µM [inhibitor, partial curve, poor fit] | 
CN(Cc1ccccc1)C(=O)CN1C(=O)NC(C)(c2ccc(C(C)(C)C)cc2)C1=O (stereo unspecified) |  | inactive: 4.67%
COCCn1c(SCC(=O)Nc2cccc(NC(C)=O)c2)nc2c([nH]c3ccccc32)c1=O | inconclusive: 89.1 µM [inhibitor, single point] | 
CC(C)CN1CCNC(=O)C1CC(=O)NCc1cnn(-c2cccc(F)c2)c1 (stereo unspecified) | inconclusive: 79.4 µM [inhibitor, single point] | 
CCN(Cc1ccccc1)c1ccc(/C=N/N2CCOCC2)cc1 | inconclusive: 11.2 µM [inhibitor, partial curve, poor fit] | 
COC(=O)CCC(NC(=O)OCc1ccccc1)C(=O)NC(CC(C)C)C(=O)OC (stereo unspecified) |  | inactive: -11.9% [at 102 µM]
COc1ccc(-c2[nH]ncc2CN2CCC(C(=O)c3ccc(F)cc3)CC2)cc1 | inconclusive: 63.1 µM [inhibitor, partial curve, poor fit] | 
COC(=O)c1cc(S(=O)(=O)N2CCN(c3ccc(OC)cc3)CC2)c[nH]1 | inconclusive: 7.94 µM [inhibitor, full curve] | 
c1coc(CNc2nc(-c3cccs3)cs2)c1 | active: 20 µM | 
CCn1c(C)cc(/C=C2/SC(=O)N(C(C)C(=O)OC)C2=O)c1C (stereo unspecified) |  | inconclusive: -69.1% [inhibitor]
CC(=O)Nc1ccc(NC(=O)C(=O)c2cn(CC(=O)N3CCCCC3)c3ccccc23)cc1 | inconclusive: 70.8 µM [inhibitor, partial curve, poor fit] | 
O=C(Nc1cccc(-c2nn[nH]n2)c1)c1csc2c1CCCC2 | inconclusive: 56.2 µM [inhibitor, partial curve, poor fit] | 
Cc1cc(C)n2c(Nc3ccc4c(c3)OCCO4)c(-c3ccc(Cl)cc3)nc2n1 |  | inactive: 1.42%
CC(C)(C)c1ccc(-c2nc(C#N)c(N3CCC(C(N)=O)CC3)o2)cc1 | inconclusive: 79.4 µM [inhibitor, single point] | 
CC(OC(=O)CCNS(=O)(=O)c1cccs1)C(=O)Nc1ccc(S(N)(=O)=O)cc1 (stereo unspecified) |  | inactive: -15.2% [at 12.7 µM]
Cc1ccc(S(=O)(=O)c2nc(N3CCOCC3)sc2Cl)cc1 | active: 6.31 µM | 
COc1ccc(N2CCN(C(=O)COC(=O)CCc3ccccc3)CC2)cc1 |  | inactive: -22.3% [at 12.7 µM]
COC(=O)c1c(Oc2ccc(OC)cc2)nnc(-c2ccccc2)c1-c1ccccc1 |  | inactive: -33.7%
CCCCOc1ccc(C2=NC(c3cccs3)=Nc3ccc(CC)cc3N2)cc1 | inconclusive: 7.94 µM [inhibitor, full curve] | 
CC(C)CC(=O)Nc1nc2nc(-c3ccccc3)cc(=O)n2[nH]1 | inconclusive: 22.4 µM [inhibitor, partial curve, poor fit] | 
Cc1c(C)[n+](=O)c(-c2ccco2)c(C)n1[O-] |  | inactive: 2.04% [at 102 µM]
O=C(Oc1ccc[nH]c1=O)c1cc([N+](=O)[O-])cc([N+](=O)[O-])c1 | inconclusive: 10 µM [inhibitor, partial curve, poor fit] | 

Compound | Potency | activity, negative = inhibition
NC(=O)c1ccc(NC(=O)c2ccc(COc3ccccc3Br)cc2)cc1 | inconclusive: 89.1 µM [inhibitor, single point] | 
CCN1CCN(c2ccc(NC(=O)c3ccc(OC)c(S(=O)(=O)N4CCCC4)c3)cc2)CC1 | inconclusive: 39.8 µM [inhibitor, single point] | 
C=CCNCC(=O)N1N=C(c2ccc3ccccc3c2)CC1c1ccc(OC)cc1 (stereo unspecified) | active: 8.91 µM | 
Cc1cc(C)c2nc(N3CCC(C(=O)N4CCN(C(=O)c5ccco5)CC4)CC3)sc2c1 | inconclusive: 25.1 µM [inhibitor, single point] | 
CN(C)c1ccc(C(CNC(=O)COc2ccc(Cl)cc2)N2CCCC2)cc1 (stereo unspecified) | active: 50.1 µM | 
COc1cccc(/C=c2\sc3nc(-c4cccs4)nn3c2=O)c1OC |  | inactive: -42.3%
c1cc(CNCCCN2CCOCC2)ccn1 | inconclusive: 89.1 µM [inhibitor, single point] | 
COc1ccc(Cl)cc1NC(=O)C(C)Sc1n[nH]c(N)n1 (stereo unspecified) |  | inactive: 10.4% [at 102 µM]
CCC1(C)CC(c2nc(-c3ccc(OC)cc3)cs2)CCS1 (stereo unspecified) | inconclusive: 39.8 µM [inhibitor, single point] | 
Cc1ccc(SCC(=O)Nc2ccc(N3CCOCC3)cc2)cc1C | inconclusive: 2 µM [inhibitor, partial curve, poor fit] | 
CC1CCCN(C(=O)COC(=O)c2cc(-c3cccs3)nn2-c2ccccc2)C1 (stereo unspecified) | inconclusive: 56.2 µM [inhibitor, partial curve, poor fit] | 
Cc1ccc2c(CC(=O)Nc3ccc(S(=O)(=O)N4CCCCC4C)cc3)coc2c1 (stereo unspecified) | inconclusive: 25.1 µM [inhibitor, partial curve, poor fit] | 
O=CN1CCN(S(=O)(=O)c2ccc(S(=O)(=O)NC3CCCCC3)cc2)CC1 | active: 44.7 µM | 
CCC(=O)NC(NC(=S)Nc1cccc2cccnc12)C(Cl)(Cl)Cl (stereo unspecified) | inconclusive: 5.01 µM [inhibitor, full curve, poor fit] | 
Cc1cccc(NC(=O)N2CCN(C(=O)c3nsc4ccccc34)CC2)c1C |  | inactive: 5.88%
COc1ccc(OC)c(C(=O)NC(CC(N)=O)c2ccc(N3CCCCCC3)c([N+](=O)[O-])c2)c1 (stereo unspecified) | inconclusive: 79.4 µM [inhibitor, single point] | 
COc1ccc(CNC(=O)CCCn2nc(C)c3sc4ccccc4c3c2=O)cc1OC | inconclusive: 39.8 µM [inhibitor, partial curve, poor fit] | 
Cc1ccc(S(=O)(=O)N2CCN(C)CC2)cc1-c1nnc2c3ccccc3c(C)nn12 |  | inactive: -0.893% [at 102 µM]
O=C(Nc1ccc(Br)cc1F)C1CCN(c2nc3ccccc3[nH]2)CC1 |  | inactive: 7.15%
Cc1ccc(-c2nc3ncccn3c2Nc2ccc3c(c2)OCCO3)o1 |  | inconclusive: -79.7% [inhibitor]
COc1cc2c(cc1O)C(Cc1ccc(O)cc1)[N+](C)(C)CC2 (stereo unspecified) |  | inconclusive: -54.4% [inhibitor] [at 2.33 µM]
COc1ccc(N2CCN(C(=O)c3cnn(-c4ccc(F)cc4)c3-n3cccc3)CC2)cc1 | inconclusive: 8.91 µM [inhibitor, partial curve] | 

Compound | Potency | activity, negative = inhibition
O=C(CSC1=NC(=O)C(c2ccccc2)C(=O)N1)Nc1ccccc1[N+](=O)[O-] (stereo unspecified) | inconclusive: 56.2 µM [inhibitor, partial curve, poor fit] | 
CC[C@@H]1/C=C(\C)C[C@H](C)C[C@H](OC)[C@H]2O[C@@](O)(C(=O)C(=O)N3CCCC[C@H]3C(=O)O[C@H](/C(C)=C/[C@@H]3CC[C@@H](O)[C@H](OC)C3)[C@H](C)[C@@H](O)CC1=O)[C@H](C)C[C@@H]2OC | inconclusive: 3.98 µM [inhibitor, full curve] | 
Cc1ccc(NC(=O)CN(C)S(=O)(=O)c2cccc3cccnc23)cc1 |  | inactive: -0.163% [at 102 µM]
Clc1ccc2c(c1)-c1c(cnc3cc(-c4ccccc4)nn13)CO2 |  | inactive: 37.2%
CCOc1ccc2nc(N3CCC(C(=O)Nc4ccccc4CC)CC3)sc2c1 |  | inactive: -3.78%
Cc1ccc2[nH]c(C)cc(=S)c2c1 | inconclusive: 17.8 µM [inhibitor, partial curve, poor fit] | 
CC(C)CCOCC(=O)Oc1ccccc1C(=O)O | inconclusive: 89.1 µM [inhibitor, single point] | 
CC1CN(C(=O)N2CCC(C(=O)N3CCN(c4ccccc4)CC3)CC2)c2cc(Cl)ccc2O1 (stereo unspecified) | inconclusive: 10 µM [inhibitor, partial curve] | 
CCS(=O)(=O)c1ncc(Cl)c(C(=O)Nc2ccc(S(=O)(=O)N3CCC(C)CC3)cc2)n1 | active: 44.7 µM | 
Cc1ccc(-n2c(C)cc(/C=c3/sc4nc5ccccc5n4c3=O)c2C)cc1 | inconclusive: 89.1 µM [inhibitor, single point] | 
CC(C)c1ccc(NC2CCCN(C(=O)c3ccc4nccnc4c3)C2)cc1 (stereo unspecified) | active: 79.4 µM | 
CCC(CC)C(=O)Nc1cc(=O)n(C)c(=O)n1C | inconclusive: 89.1 µM [inhibitor, single point] | 
COc1cccc(CN2CCNC(=O)C2CC(=O)N(C)Cc2nc(C)cs2)c1OC (stereo unspecified) | inconclusive: 79.4 µM [inhibitor, single point] | 
CCOc1cc2[nH]c(=O)n(CCCCC(=O)N3CCN(c4ccc(OC)cc4)CC3)c(=O)c2cc1OCC |  | inactive: -9.25%
O=C(/C=C/Nc1ccc(S(=O)(=O)Nc2cnc3ccccc3n2)cc1)c1cccnc1 | active: 70.8 µM | 
CCOc1ccc(C(=O)Nc2nnc(S(=O)(=O)Nc3ccccc3)s2)cc1 |  | inactive: -21.5%
CNC(=O)c1cc2c(ccc3ccccc32)o1 | inconclusive: 70.8 µM [inhibitor, partial curve, poor fit] | 
CC(C)c1nc2sc3c(=O)[nH]c(=S)[nH]c3c2c2c1CCC2 | inconclusive: 5.62 µM [inhibitor, full curve, poor fit] | 
Fc1ccc(CNCc2ccco2)cc1 | inconclusive: 8.91 µM [inhibitor, full curve] | 
CCc1cc(CNC(=O)CCc2nnc(CCCc3ccccc3)o2)on1 | inconclusive: 6.31 µM [inhibitor, partial curve, poor fit] | 
COc1ccc(NC(=O)CCS(=O)(=O)c2ccc3c(c2)NC(=O)C(C)S3)cc1OC (stereo unspecified) |  | inactive: 18.2% [at 102 µM]
COc1cccc(NC(=O)C(Sc2nnc(Nc3ccccc3C)s2)c2ccccc2)c1 (stereo unspecified) | inconclusive: 25.1 µM [inhibitor, partial curve, poor fit] | 
